From the supplement of paper PMC11417369 come the findings set out here.

Some of the results follow.

In this experiment the test system is PfAP2-HC AP2 domain (GST-tagged). The experiment can be described thus: gcPBM binding intensity (ln(normalized median fluorescence intensity)); higher = stronger DNA binding. In outline:
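An Agilent 4 × 180k array carrying primer-extended double-stranded 36-bp intergenic genomic probes and negative controls received GST-tagged P. falciparum DNA-binding domains expressed in E. coli, about 25 μg on average, for 1 h. The binding buffer contained 1× PBS, 1% milk, 0.2 mg/ml BSA, 0.5% salmon testes DNA and 0.03% Triton X-100. Binding intensity is the top Masliner-normalised natural-log median intensity across replicate spots of either probe orientation, read after Alexa488 anti-GST antibody staining and a 488 nm scan.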
For the sequence “TTAAAATAGCTAGTTTGTACATAAAATATATTACTT [XGTACX_site202]”, the “gcPBM binding intensity (ln)” value stood at 9.6.
“TAAATAAATAAAAATAGTACATAATTATTATTATTA [XGTACX_site4981]”: the “gcPBM binding intensity (ln)” value turned out to be 9.59.
In the case of “ATATATATGTATGTATGTACACACAAAAAATGGAAT [XGTACX_site7879]”, the “gcPBM binding intensity (ln)” value came to 10.4.
“TACAAAATAAATGGAACATGCAAAAAAATTGATTAA [TGCATGCA_site790]”: the “gcPBM binding intensity (ln)” value stood at 9.76.
Turning to “AAAAAAAAAAAAAAAACACACATTTTAAGAAAAAAA [CACACA_site2926]”, the “gcPBM binding intensity (ln)” value stood at 9.7.
The result for “ATATGCTATTATATATGTACACACCAATTTATTTAT [XGTACX_site8364]” reads 9.89.
The result for “ATAGAATATTAATAATTAAAAATAAAATAAAATAAA [CACACA_negctrl_site1810]” reads 9.7; that for “TATTTAATTATTTGTAGTACGATTAATATTTAATGA [XGTACX_site3553]”, 9.53; that for “CTTAATAAGAATAAATGTACAAGGGATAAAAAATTT [XGTACX_site3213]”, 9.79.
In the case of TTAATTAATTTTTCAGTGCAAATAAAAAATATTTAA it was 9.25.
On to “CAAAAGTAAGCACGCACACACAACATGAAATAAACT [CACACA_site6223]”, for which the “gcPBM binding intensity (ln)” value was found to be 10.6.
Turning to “TATCTTATAAACTCTGCACACATAATATATTAAATG [CACACA_site8587]”, the “gcPBM binding intensity (ln)” value came out at 9.93.
As to “TATACGCAGAAACACACACACATACACCCACATACA [CACACA_site1723]”, the “gcPBM binding intensity (ln)” value stood at 10.6.
The result for “AACGTTCATAATTATTGTACCCTCATTTTATTTTTT [XGTACX_site503]” reads 9.87; that for “AAAAATTTTAATTAGGAACACACATATATATATATA [CACACA_site9016]”, 9.86; that for “ATAAAACGAAGATGTTGTACGTACAAATAAATGAAT [XGTACX_site2472]”, 10.1.
In the case of “ATAACTTTTTAAAAGACACACATAAGAAAAACAAAA [CACACA_site723]” it was 9.72; in that of “TATATTAGAAAGGATACACACATATATATATATCTA [CACACA_site570]”, 9.87; in that of “ATAAAAATATTGTCTAGTACATATTTATAATAAAAA [XGTACX_site7523]”, 9.44.
In the case of “AGAAATATATCTATTTGTCCGTATATTCATATTTAT [XGTACX_site8427]” it was 9.74; in that of “AGATTGGAACATTAAAGTACTTACTTTTTTTTTTTT [XGTACX_site8017]”, 9.51.
“GATTACTAGAAATGCACACACTGATAAAATAAGGAA [CACACA_site6131]”: the “gcPBM binding intensity (ln)” value is 10.4.
The result for “TATATATATGAGTATACACACCTGATAAAGGTATAT [CACACA_site5462]” reads 9.8.
In the case of “TTAAACTTGAAACACACACACACACCGATATAAAAA [CACACA_site4578]” it was 10.5; in that of “ATATATTTAAACAAAAGTACAAATCATAAATTCAAG [XGTACX_site3633]”, 9.58; in that of “TATATATTCTTTTAATGTACATATTGTATTATATCC [XGTACX_site4501]”, 9.77.
In the case of “TCTTTATCTTCTTATACACACATTTATTAAAAAAAA [CACACA_site445]” it was 9.57; in that of “TGACATAAAAAATATACACACTATAATATTTATACT [CACACA_site6776]”, 9.82; in that of “ATTTTTTAAAAAGTAACACACACTCTTATATATAAT [CACACA_site9206]”, 9.91.
Regarding “ATTTTTTTTTTTTTTTTTTTTGCACCATAAAATAAT [CACACA_negctrl_site1324]”, the “gcPBM binding intensity (ln)” value was 9.48.
The result for “TATATACTCAAACACACACACACATACACAGACATA [CACACA_site5025]” reads 10.7.
Turning to “ATTTTGACATTATATAGTACATATAATTTACATTTA [XGTACX_site3024]”, the “gcPBM binding intensity (ln)” value came to 9.68.
The result for “TATATATATATGTGTACACATTTGTCAGATTATATA [CACACA_site4813]” reads 9.79; that for “TATTATTAATATGTATGGTTGTAATCTGTGTCTCCT [TGCATGCA_negctrl_site190]”, 9.92.
For “AATATAATTTTTTATTGTACAAAAAAATTATTTAAT [XGTACX_site3248]”, the “gcPBM binding intensity (ln)” value was 9.41.
In the case of “AAGAACAAATATGAGGTGCAACACAATATATTATTA [GTGCAC_site9965]” it was 9.86; in that of “AATAAGTATACACATACACACACACCCAAAAAAAAA [CACACA_site8034]”, 11; in that of “TTTTTTTTTATCAAATGTACATATATATAATAATAA [XGTACX_site3941]”, 9.25.
The result for “CATTTTGTAAGATATGCACACATGGATCATATTTTA [CACACA_site423]” reads 9.66; that for “TTTTACAATGAAATATGTACTTAAATGTCCAAATTC [XGTACX_site781]”, 9.5; that for “TATATAAGAATATATACACACATATATGTATATATA [CACACA_site2178]”, 9.71.
The result for “AAAAAGAAAAATTGCACACACTTATAAAAATATACG [CACACA_site6074]” reads 10.1; that for “GTTAACAAATAATGCACACAAATGGATAAAATTATA [CACACA_site3725]”, 9.9; that for “TTAACCATTAATTCTCTACACACTTTTATTTTATTT [CACACA_site8522]”, 9.93.
Regarding “ATGGGTATTAAGTGTACACATATAGTGTATTTTGTT [CACACA_site4452]”, the “gcPBM binding intensity (ln)” value came to 9.85.
As for “GTGTAAATATAATTAGTTTCACAAAACAAATATTTA [CACACA_negctrl_site717]”, the “gcPBM binding intensity (ln)” value is 9.61.
Turning to “AGGCACAAAATTAAATGTACATATATATATATATAT [XGTACX_site3323]”, the “gcPBM binding intensity (ln)” value was found to be 9.66.
Consider “CATATACAGAAACACACACACACATAAATAAATATA [CACACA_site1343]”, for which the “gcPBM binding intensity (ln)” value was determined as 11.
With “TTTAATTAAATATGTATATATATTCATGTATGTATA [GTGCAC_negctrl_site14]”, the “gcPBM binding intensity (ln)” value was found to be 9.58.
Take “AGTAGATATAAAAGGAGTACACATATATATATAAAT [XGTACX_site4375]”: the “gcPBM binding intensity (ln)” value amounted to 9.85.
On to “AAAAAAAAAAGACACACACACATATTTATTTATATA [CACACA_site6484]”, for which the “gcPBM binding intensity (ln)” value worked out at 10.4.
As to “AATATATAAGTGTTGTGTACTAAAGTATTTTCCTAT [XGTACX_site1622]”, the “gcPBM binding intensity (ln)” value was found to be 9.95.
In the case of “ATAGTATCTGGTAGCTGTACGAGTCGTATAGTGCAG [XGTACX_site2542]” it was 9.66.
Turning to “TTTCCGTATAATTTTGCACACGAATATAAATTTGAT [CACACA_site137]”, the “gcPBM binding intensity (ln)” value came to 9.72.
For “ATAGTTTTACACATTTGTACATAATTTACAACAAAA [XGTACX_site25]”, the “gcPBM binding intensity (ln)” value was determined as 9.55.
In the case of “ATATATATATATTCCACACACACACTAATAAAAAAA [CACACA_site9214]” it was 10.3.
In the case of “TTTAATCAAATTAAAAGTACAGAATTGTTCATGTAG [XGTACX_site1229]”, the “gcPBM binding intensity (ln)” value stood at 9.53.
Consider “AAAAAATATTATATATGTACATAATATTTTTTTTTT [XGTACX_site5909]”, for which the “gcPBM binding intensity (ln)” value was found to be 9.4.
In the case of “TATATATATATATATACATGCATATTTTTTATTTTT [TGCATGCA_site464]”, the “gcPBM binding intensity (ln)” value is 9.5.
The result for “TTTTTTATATATATTTGTACATATTGCATGTTCCCT [XGTACX_site7143]” reads 9.72; that for “TATATTTATCTGATAACACACATAAATTAGACATTT [CACACA_site6887]”, 9.55.
For the sequence “TGTCTTATATATATTACACACTATATGAAAAAATAT [CACACA_site1487]”, the “gcPBM binding intensity (ln)” value came to 9.6.
As for “TAATTTAATAATTAGACACACATGTCTAAAATAAAA [CACACA_site2527]”, the “gcPBM binding intensity (ln)” value was found to be 9.61.
In the case of “AAAAGAAATTTGGGCACATGCGAATTTATAATTTAT [TGCATGCA_site960]” it was 9.71; in that of “TAAAGTATTACAACCACACACACACCGATATATTAT [CACACA_site9382]”, 10.8.
For the sequence “CAACATTTATATTTTACACACATCATTTAAGCGCTT [CACACA_site992]”, the “gcPBM binding intensity (ln)” value is 9.98.
The result for “ATTGTTTTATATAGAACACACATAAAAATCTATATG [CACACA_site6681]” reads 9.63.
The result for “TTATTATATAAAATAAATAACAAAAAAAATAAAATA [GTGCAC_negctrl_site548]” reads 9.56; that for “TTTGAAATAAATAATGCACACTCTACATATATACGT [CACACA_site2244]”, 9.79.
In the case of “CCTATCCATACATATACACACATATCTATTTATATA [CACACA_site1669]” it was 9.91.
As to “AAATAAAATACAAGTTGTACTATAAGCTTTTTATAT [XGTACX_site8021]”, the “gcPBM binding intensity (ln)” value was found to be 9.64.
The result for “AATATGGTTATATATATATATATATATATATATATT [GTGCAC_negctrl_site566]” reads 9.78.
Take “CCTATCCAGACATATACACACATATCTATTTATATA [CACACA_site5001]”: the “gcPBM binding intensity (ln)” value was found to be 9.91.
The result for “TATAAAAAATAATACACACACATGGCGACAAAATAA [CACACA_site2420]” reads 10.5; that for “TTTACTTTCCCAAGTTGTACTGCTTCTAAGCTTTTT [XGTACX_site2708]”, 9.7; that for “AATGATAATATTTCCTTCTTTTTTACTTCTTTCTTT [CACACA_negctrl_site776]”, 9.63.
The result for “AAAATGGTTTATAAATGTACATATATTATATATAAC [XGTACX_site7959]” reads 9.72.
“AAAAAAAATTTCTTCTGTACGCATAAATTTTTATTA [XGTACX_site8721]”: the “gcPBM binding intensity (ln)” value was determined as 9.49.
For the sequence “TATTTAATTTTTAAATGTACATATAAAATAATATAT [XGTACX_site2422]”, the “gcPBM binding intensity (ln)” value came to 9.42.
The result for “TTTTTCAGAAAAGAAACACACATATATATATTTATA [CACACA_site2372]” reads 9.56; that for “CATATAAAATAATTCACACAAATATACAAATACCCA [CACACA_site5340]”, 9.87; that for “CTTTATAAAATAAGAGTGCGTTATATTGAATTGTAT [GTGCAC_site9390]”, 9.56.
In the case of “ATATAAGATTTAAGAAGTACAATTATACAGTAGATC [XGTACX_site7501]” it was 9.75; in that of “ATATAACATAGACACACACACATATAAATATATTAT [CACACA_site7865]”, 10.6.
For “TTTTTATAACGTAATAAATAAAACGTCTATACTATA [XGTACX_negctrl_site176]”, the “gcPBM binding intensity (ln)” value worked out at 9.7.
The result for “AAAAATATAATATAATGTACACAAAAAAAAAAATTC [XGTACX_site3657]” reads 9.78; that for “AATTAGACATAATATACACACATATATTATAGATAT [CACACA_site7297]”, 9.86; that for “TATATTATTATAATTTGTACATATCTAATTATATAT [XGTACX_site5342]”, 9.74.
In the case of “TAAAGATATTATTTTTGTACATATTGATATAATGAA [XGTACX_site6571]” it was 9.4.
